{
  "source": "PubChem BioAssay AID686978",
  "about": "(National Center for Advancing Translational Sciences (NCATS), 2013)",
  "note": "About 64,000 (15%) of roughly 420,000 compounds were called active. Inconclusive means that the source gave no clear call. Such entries were picked first, then a sample of the others. The call rests on the fitted dose curve; in most records, active means well fitted inhibition curve with a large enough effect; inconclusive means small, poorly fitted or top-dose-only effect; inactive means flat fitted curve, though single readings scatter. Potencies of inconclusive entries are left out as doubtful fits. On the % scale 0 is the no-effect control and ±100 the full control effect; potency means the concentration at half of the fitted maximal effect; tags describe the fitted curve by direction and shape.",
  "data": [
    {"assay": "qHTS for Inhibitors of human tyrosyl-DNA phosphodiesterase 1 (TDP1): qHTS in cells in absence of CPT; further: nearly all actives have a fitted effect of over 55% in size", "settings": "DT40 Tdp1-/- hTDP1 cells, no CPT, ATP luminescence, 48 h; activity change, negative = growth inhibition: at 46.2 µM (top of the series) unless noted", "method_in_brief": "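Cells were dispensed at 400 per well, compounds added by pin tool, plates incubated ≥48 hr at 37 °C, then CellTiter-Glo added for 30 min at room temperature before luminescence reading. Line: DT40 Tdp1-/- complemented with hTDP1; camptothecin omitted.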", "values": [
      {"smiles": "COc1ccc(Cc2nc(-c3ccncc3)no2)cc1", "Potency": "inconclusive [inhibitor, partial curve]"},
      {"smiles": "Cc1ccc(S(=O)(=O)C(CNS(=O)(=O)c2ccc(F)c(C(F)(F)F)c2)c2ccco2)cc1", "note": "(stereo not drawn)", "Potency": "inconclusive [inhibitor, single point]"},
      {"smiles": "CCOC(=O)C1=C(C)NC(=O)NC1c1ccc(OCC(=O)N2CCCCC2)cc1", "note": "(stereo not drawn)", "activity change, negative = growth inhibition": "inconclusive: -30.6% [inhibitor]"},
      {"smiles": "COc1ccc(N2C(=O)c3cc4ccccc4cc3C2=O)cc1", "Potency": "inconclusive [inhibitor, partial curve, poor fit]"},
      {"smiles": "N#CC1=C(N)Oc2n[nH]c(-c3ccccc3)c2C1c1ccsc1", "note": "(stereo not drawn)", "Potency": "active: 11.6 µM"},
      {"smiles": "CC1=C(C)CC2(SC1)C(=O)N(c1ccccc1)N=C2N", "note": "(stereo not drawn)", "Potency": "active: 20.6 µM"},
      {"smiles": "Cn1cnnc1SCC(=O)N1N=C(c2ccc(Cl)cc2)CC1c1ccco1", "note": "(stereo not drawn)", "activity change, negative = growth inhibition": "inactive: -14.5%"},
      {"smiles": "CCCNS(=O)(=O)c1cccc(C(=O)NC2CCCc3ccccc32)c1", "note": "(stereo not drawn)", "activity change, negative = growth inhibition": "inactive: -27.9%"},
      {"smiles": "CC(=C/C(=O)O)/C=C/c1ccco1", "Potency": "active: 7.31 µM"},
      {"smiles": "Cc1cc(C(=O)OCC(=O)NC(C)C)c2ccccc2n1", "Potency": "inconclusive [inhibitor, single point]"},
      {"smiles": "CC(Oc1ccc(F)cc1)C(=O)Nc1ccccc1N1CCCCC1", "note": "(stereo not drawn)", "Potency": "active: 16.4 µM"},
      {"smiles": "O=C(NNc1c2ccccc2nc2ccccc12)c1cccc(O)c1", "Potency": "active: 11.6 µM"},
      {"smiles": "CC(CNC(=O)C1CCN(C(=O)c2cc3sccc3n2C)CC1)c1ccccc1", "note": "(stereo not drawn)", "Potency": "inconclusive [inhibitor, single point]"},
      {"smiles": "COC(=O)N/N=C1\\CCCc2c(C)cc(C)cc21", "activity change, negative = growth inhibition": "inactive: -5.23%"},
      {"smiles": "O=C1NC[C@@H](c2ccccc2)OC(=O)[C@@H](Cc2ccc(F)cc2)CC/C=C/C[C@@H]1CC(=O)N(CCO)Cc1ccccc1", "Potency": "active: 14.6 µM"},
      {"smiles": "Cc1ccc(SCc2[nH]nc3c2C2(C(=O)Nc4ccc(F)cc42)C(C#N)=C(N)O3)cc1", "note": "(stereo not drawn)", "Potency": "inconclusive [inhibitor, single point]"},
      {"smiles": "Cc1cc(C)cc(OCC(=O)Nc2cccc(-c3nnc(-c4ccco4)o3)c2)c1", "Potency": "inconclusive [inhibitor, single point]"},
      {"smiles": "CCOC(=O)C1=CCC(c2cc3ccc(OC)cc3n2C(=O)OC(C)(C)C)NC1", "note": "(stereo not drawn)", "Potency": "inconclusive [inhibitor, single point]"},
      {"smiles": "Cc1c(NC(=S)Nc2cccc(Cl)c2)c(=O)n(-c2ccccc2)n1C", "activity change, negative = growth inhibition": "inactive: 5.36%"},
      {"smiles": "O=C(Cn1c(O)c(/C=C2\\C=Nc3ccc(Br)cc32)sc1=O)N1CCCC1", "Potency": "inconclusive [inhibitor, single point]"},
      {"smiles": "Cc1ccc(N(C(=O)C(F)(F)F)C(C(=O)NC2CCCCC2)c2ccncc2)cc1C", "note": "(stereo not drawn)", "Potency": "active: 18.4 µM"},
      {"smiles": "COc1ccc(COC(=O)N/N=C(\\C)CC(=O)Nc2ccc(Cl)cc2)cc1", "activity change, negative = growth inhibition": "inactive: -6.88%"},
      {"smiles": "COc1cc(/C=C/C(=O)OCC(=O)Nc2oc(C)c3c(C)n[nH]c(=O)c23)ccc1OC(F)F", "Potency": "inconclusive [inhibitor, partial curve]"},
      {"smiles": "CC12CCC(=O)N1c1ccccc1C(=O)N2c1ccccc1", "note": "(stereo not drawn)", "activity change, negative = growth inhibition": "inconclusive: -30.2% [inhibitor]"},
      {"smiles": "O=C(Cc1ccc(-n2c(=O)c3ccccc3n(Cc3ccccc3Cl)c2=O)cc1)NCC1CCCO1", "note": "(stereo not drawn)", "Potency": "inconclusive [inhibitor, single point]"},
      {"smiles": "COc1ccc(NC(=O)C(C2CC2)n2c(=O)c(-c3cc4ccccc4[nH]3)nc3ccccc32)cc1", "note": "(stereo not drawn)", "Potency": "inconclusive [inhibitor, partial curve, poor fit]"},
      {"smiles": "Cc1c(C)n(C)c2ccc(C(=O)NCCc3ccco3)cc12", "Potency": "active: 16.4 µM"},
      {"smiles": "Cc1ccc(Cl)cc1Nc1nn2c(=O)c3ccc(C(=O)NC(C)c4ccccc4)cc3nc2s1", "note": "(stereo not drawn)", "Potency": "active: 3.26 µM"},
      {"smiles": "CCOC(OCC)P(=O)(O)CCCNCc1ccc(Cl)c(Cl)c1", "Potency": "inconclusive [inhibitor, full curve, poor fit]"},
      {"smiles": "COc1ccccc1CNC(=O)CCc1c(C)nn(-c2ccc(N3CCCCC3)nn2)c1C", "Potency": "active: 25.9 µM"},
      {"smiles": "CN(Cc1ccccc1)C(=O)CCC1CCN(S(=O)(=O)N(C)C)CC1", "Potency": "inconclusive [inhibitor, single point]"},
      {"smiles": "O=C(CN1C(=O)NC(c2ccccc2)(c2ccccc2)C1=O)N1CCN(c2ccccc2F)CC1", "Potency": "active: 4.11 µM"},
      {"smiles": "Cn1nc(C(=O)NCc2ccccc2)c2c1-c1ccccc1S(=O)(=O)C2", "Potency": "inconclusive [inhibitor, single point]"},
      {"smiles": "COc1ccc(Cn2nnnc2C(c2cccs2)N2CCN(c3ccccc3)CC2)cc1", "note": "(stereo not drawn)", "Potency": "inconclusive [inhibitor, single point]"},
      {"smiles": "COc1ccc(C2=Nn3c(nnc3-c3ccccn3)SC2)cc1", "Potency": "inconclusive [inhibitor, single point]"},
      {"smiles": "COCCN(CCOC)S(=O)(=O)c1ccc(C(=O)Nc2c(C)n(C)n(-c3ccccc3)c2=O)cc1", "activity change, negative = growth inhibition": "inactive: 2.74%"},
      {"smiles": "COc1cc(O)c(C(CC(=O)N2CCOCC2)c2ccc3c(c2)OCO3)c(OC)c1", "note": "(stereo not drawn)", "Potency": "inconclusive [inhibitor, single point]"},
      {"smiles": "COc1cccc(NC(=O)CN(C)C(=O)c2cc3ccccc3cc2OC)c1", "activity change, negative = growth inhibition": "inactive: -18.2%"},
      {"smiles": "CCc1ccc2c(c1)/C(=N/OC)C(=O)N2", "Potency": "active: 20.6 µM"},
      {"smiles": "CN(Cc1ccccc1)C(=O)Cc1ccccc1", "Potency": "inconclusive [inhibitor, full curve]"},
      {"smiles": "COCCn1nnnc1C(c1cc2cc(OC)ccc2[nH]c1=O)N1CCC(Cc2ccccc2)CC1", "note": "(stereo not drawn)", "Potency": "active: 23.1 µM"},
      {"smiles": "CC1CCN(C(=O)COC(=O)c2cc3ccccc3oc2=O)CC1", "activity change, negative = growth inhibition": "inactive: -28.3%"},
      {"smiles": "O=[N+]([O-])c1cc([N+](=O)[O-])c(Oc2cc(F)ccc2F)cc1NN1CCCCC1", "Potency": "inconclusive [inhibitor, single point]"},
      {"smiles": "Fc1ccccc1-c1cc2ncccc2cn1", "Potency": "inconclusive [inhibitor, partial curve]"},
      {"smiles": "O=C(Nc1ccc(S(=O)(=O)N2CCOCC2)cc1)c1cccnc1", "Potency": "inconclusive [inhibitor, single point]"},
      {"smiles": "COc1ccc(C(CNC(=O)c2ccc(-c3ccccc3Cl)o2)N2CCOCC2)cc1", "note": "(stereo not drawn)", "Potency": "active: 16.4 µM"},
      {"smiles": "COc1cccc(NC(=S)Nc2ccc(Br)cc2Cl)c1", "Potency": "inconclusive [inhibitor, single point]"},
      {"smiles": "O=C(CNS(=O)(=O)c1ccccc1)N/N=C/c1ccc(O)cc1", "activity change, negative = growth inhibition": "inactive: -3.12%"},
      {"smiles": "Cc1nn(Cc2ccc(Cl)c(Cl)c2)c(C)c1NC(=O)c1cn(-c2ccccc2)nc1-c1ccccc1", "Potency": "inconclusive [inhibitor, single point]"},
      {"smiles": "Cc1ccc(Nc2ncnc3c2cnn3C)cc1", "Potency": "inconclusive [inhibitor, single point]"},
      {"smiles": "Cc1ccc(S(=O)(=O)C(CNC(=O)C(=O)NCc2ccc(Cl)cc2)c2ccco2)cc1", "note": "(stereo not drawn)", "activity change, negative = growth inhibition": "inactive: -14.4%"},
      {"smiles": "Cc1nc(C(=O)Nc2ccc(Cl)cc2Cl)nn1-c1cc(OC(C)C)c(Cl)cc1Cl", "Potency": "inconclusive [inhibitor, single point]"},
      {"smiles": "CCCn1c(NC(=O)c2ccc(C)cc2)nc2ccccc21", "Potency": "active: 25.9 µM"},
      {"smiles": "O=c1c2sc3ccccc3c2n(Cc2ccc(F)cc2Cl)c(=O)n1Cc1ccccc1", "Potency": "inconclusive [inhibitor, single point]"},
      {"smiles": "COc1cccc(NC(=O)CN(C)C(=O)c2ccc(-c3ccc(Cl)cc3)o2)c1", "Potency": "inconclusive [inhibitor, single point]"},
      {"smiles": "O=C(NNC(=O)C1CC(=O)N(Cc2ccccc2)C1)c1ccc(F)cc1", "note": "(stereo not drawn)", "activity change, negative = growth inhibition": "inactive: 0.757%"},
      {"smiles": "CCCC(OC(=O)CN1C(=O)COc2ccccc21)C(=O)NC1CCCC1", "note": "(stereo not drawn)", "activity change, negative = growth inhibition": "inactive: 0.232%"},
      {"smiles": "COc1ccc(/C=C2\\CC/C(=C\\c3ccc(OC)cc3OC)C2=O)c(OC)c1", "Potency": "inconclusive [inhibitor, single point]"},
      {"smiles": "O=C(OCc1c(F)cccc1Cl)c1cnc(Cl)c(Cl)c1", "activity change, negative = growth inhibition": "inactive: -12.6%"},
      {"smiles": "O=S(=O)(N1CCCCC1)n1c(Cc2ccccc2)nc2ccccc21", "Potency": "inconclusive [inhibitor, single point]"},
      {"smiles": "Cc1ccc(C(=O)NCCNS(C)(=O)=O)cc1", "activity change, negative = growth inhibition": "inactive: 12.8%"},
      {"smiles": "COc1ccc(NC(=O)c2cccc3c(-c4ccc(OC)cc4C)coc23)cc1", "Potency": "inconclusive [inhibitor, single point]"},
      {"smiles": "O=C(c1cc2ccccc2s1)N1CCN(c2ccccn2)CC1", "activity change, negative = growth inhibition": "inactive: -1.53%"},
      {"smiles": "Cc1cc(=O)oc2cc(OCC(=O)Nc3c(Cl)cccc3C(F)(F)F)ccc12", "Potency": "active: 13 µM"},
      {"smiles": "CSc1ccccc1-c1nc(-c2ccncc2)no1", "Potency": "inconclusive [inhibitor, partial curve]"},
      {"smiles": "CCn1cc(S(=O)(=O)c2ccc(Cl)cc2)c(=O)c2cc(F)c(N3CCOCC3)cc21", "Potency": "active: 16.4 µM"},
      {"smiles": "CC(=O)c1cccc(CN2CCCC(C(=O)c3ccc4c(c3)OCO4)C2)c1", "note": "(stereo not drawn)", "Potency": "inconclusive [inhibitor, single point]"},
      {"smiles": "COCCNC(=O)c1cc(-c2ccccc2)nn1CC1CC(c2cccnc2)=NO1", "note": "(stereo not drawn)", "activity change, negative = growth inhibition": "inactive: -14.2%"},
      {"smiles": "Cc1ccc(CNC(=O)CN2C(=O)CCc3cc(S(=O)(=O)N4CCCCC4)ccc32)cc1", "Potency": "inconclusive [inhibitor, full curve]"},
      {"smiles": "Cc1cccc(C(=O)OCC(=O)c2c(N)n(CC(C)C)c(=O)n(C)c2=O)c1O", "Potency": "active: 23.1 µM"},
      {"smiles": "Cc1ccc2onc(CNC(=O)N3CCN(c4cccc(C(F)(F)F)c4)CC3)c2c1", "Potency": "inconclusive [inhibitor, partial curve]"},
      {"smiles": "CCN(CC)S(=O)(=O)c1ccc(N2CCCCS2(=O)=O)cc1", "activity change, negative = growth inhibition": "inactive: -22.6%"},
      {"smiles": "O=C(CCc1nc2ccccc2c(=O)[nH]1)Nc1cccc(S(=O)(=O)N2CCCCC2)c1", "Potency": "active: 20.6 µM"}
    ]}
  ]
}
